Test results taken from PubChem BioAssay AID1461 (National Center for Advancing Translational Sciences (NCATS), 2008).
The whole screen tested about 220,000 compounds, of which about 2,300 (1%) were called active. Inconclusive results, whose numbers are uncertain, are shown with a selection of clear calls. Calls follow the shape of the dose curve; as a rule, active = well fitted inhibition curve with a large enough effect; inconclusive = small, poorly fitted or top-dose-only effect, or effect the other way; inactive = no such curve, though single readings can be large or run the other way. Where the call is inconclusive, the potency comes from a doubtful curve fit.

target: Neuropeptide S receptor (Homo sapiens) (UniProt Q6W5P4); experiment: qHTS Assay for Antagonists of the Neuropeptide S Receptor: cAMP Signal Transduction; conditions: CHO-NPSR cells, cAMP TR-FRET, antagonist mode; activity change, negative = inhibition: at 38.3 µM (top of the series) unless noted; also: nearly all actives have a fitted effect of over 50% in size
Sequence of UniProt Q6W5P4 (Q6W5P4 whole entry, looked up): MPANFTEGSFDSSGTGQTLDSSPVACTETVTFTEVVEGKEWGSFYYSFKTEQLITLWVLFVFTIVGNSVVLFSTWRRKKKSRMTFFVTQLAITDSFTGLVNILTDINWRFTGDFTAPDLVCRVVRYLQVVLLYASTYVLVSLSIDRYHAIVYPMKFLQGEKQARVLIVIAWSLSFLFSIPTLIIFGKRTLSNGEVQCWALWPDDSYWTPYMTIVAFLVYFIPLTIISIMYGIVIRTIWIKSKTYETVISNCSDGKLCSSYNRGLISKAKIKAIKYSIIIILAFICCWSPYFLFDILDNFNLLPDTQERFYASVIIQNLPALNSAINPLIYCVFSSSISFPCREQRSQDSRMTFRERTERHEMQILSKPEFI
% is scaled to controls: 0 for no effect and ±100 for the full control effect; potency is read from the fitted curve at half-maximal effect; tags tell the direction and shape of the fitted curve.

Row | Compound | Potency | activity change, negative = inhibition
1 | Cc1ccc(S(=O)(=O)N2CCN(Cc3nc4ccccc4n3C)CC2)cc1 | inconclusive: 10 µM [inhibitor, partial curve, poor fit] | 
2 | COc1ccc(NC(=O)c2[nH]ncc2[N+](=O)[O-])cc1 | inactive | 
3 | CC(C)N(Cc1nc(-c2ccccc2)no1)C(=O)c1ccc(Br)o1 | inactive | 
4 | Cc1ccc(CCNC(=O)C23CN(Cc4ccccc4)CC2C(c2cccc([N+](=O)[O-])c2)=NO3)cc1 (stereo not given) | inconclusive: 5.01 µM [inhibitor, single point] | 
5 | Cc1cccc(Nc2nc(N)c([N+](=O)[O-])c(NCc3ccccc3)n2)c1 | inconclusive: 10 µM [inhibitor, single point] | 
6 | Cc1nc(N2CCC(C)CC2)c2c(C)c(C(=O)Nc3ccccc3C(F)(F)F)sc2n1 | inconclusive: 10 µM [inhibitor, single point] | 
7 | Cc1ccc(S(=O)(=O)Nc2cc(C(C(=O)OC(C)C)C(=O)C(F)(F)F)c(O)c3ccccc23)c(C)c1 (stereo not given) | inconclusive: 10 µM [inhibitor, single point] | 
8 | COc1cc2cc(Br)cc(Br)c2nc1C | inconclusive: 25.1 µM [activator, single point] | 
9 | Cc1cc(Br)ccc1OCC(=O)NNC(=O)c1cnccn1 | inactive | 
10 | CCOc1ccccc1C1C(C#N)=C(N)SC(N)=C1C#N | inconclusive: 12.6 µM [activator, single point] | 
11 | COCCOC(=O)c1sc(=S)n(CCOC)c1N | inconclusive: 25.1 µM [inhibitor, single point] | 
12 | CCNc1nc(Oc2ccc(=O)n(-c3ccccc3)n2)nc(N(C)C)n1 | inactive | 
13 | c1ccc2oc(C3=NNC(=NC4CC4)SC3)cc2c1 | inactive | 
14 | COc1cccc(=O)c2c(C)n(-c3ccc(C(=O)O)cc3)c(C)c12 | inactive | 
15 | CC12CCC(c3c(C(=O)Nc4nccs4)nn(-c4ccccc4)c31)C2(C)C (stereo not given) | inconclusive: 10 µM [inhibitor, single point] | 
16 | Cc1ccc(NC(=O)Nc2ncccc2C)cc1 | inconclusive: 3.98 µM [inhibitor, single point] | 
17 | CCCN1C(=O)C(O)(C2CC(=O)CC(C)(C)O2)c2ccccc21 (stereo not given) | inactive | 
18 | Cc1nc2cc(-c3ccc(Cl)cc3)nn2c(C)c1CCC(=O)NCc1ccco1 | inconclusive: 31.6 µM [inhibitor, single point] | 
19 | COc1ccc(C2C3=C(N=C4SCC(=O)N42)c2ccccc2CC3)cc1 (stereo not given) | inconclusive: 15.8 µM [inhibitor, partial curve, poor fit] | 
20 | CC(=O)Nc1ccc(S(=O)(=O)Nc2nc3ccccc3nc2Nc2ccc(N)cc2)cc1 | inactive | 
21 | O=[N+]([O-])c1ccc(Sc2ncccn2)c([N+](=O)[O-])c1 | inconclusive: 25.1 µM [activator, single point] | 
22 | CCCCCOc1ccccc1C(=O)NCCCC(=O)O | inactive | 

Row | Compound | Potency | activity change, negative = inhibition
23 | COc1ccc(C(CC(=O)O)NC(=O)c2sc3ccccc3c2Cl)cc1 (stereo not given) | inconclusive: 6.31 µM [activator, partial curve] | 
24 | N#CC(c1ccc(Cl)cc1)c1nc2ccccc2nc1C(F)(F)F (stereo not given) | inconclusive: 12.6 µM [inhibitor, partial curve] | 
25 | CC(C)(C)n1nnnc1C(c1cccnc1)N(Cc1ccccc1)Cc1ccco1 (stereo not given) | inconclusive: 10 µM [inhibitor, partial curve] | 
26 | O=C(COc1ccc(Cl)cc1Cl)N1CCCN(C(=O)COc2ccc(Cl)cc2Cl)CC1 | inconclusive: 10 µM [inhibitor, single point] | 
27 | CCOc1ccc(-n2c(Cc3cc(=O)[nH]c(=O)[nH]3)nnc2SCC(N)=O)cc1 | inactive | 
28 | COc1ccc(CCn2c(SCCN3CCCCC3)nc3ccccc3c2=O)cc1OC | inconclusive: 12.6 µM [activator, single point] | 
29 | CCOc1ccc(-n2c(SCc3ccc([N+](=O)[O-])cc3)nnc2-c2ccccc2)cc1 | inconclusive: 15.8 µM [inhibitor, partial curve] | 
30 | O=C(NC12CC3CC(CC(C3)C1)C2)c1ccc(COc2ccc(Cl)cc2[N+](=O)[O-])o1 | inconclusive: 10 µM [inhibitor, single point] | 
31 | CCC(C)Nc1nc(-c2ccc3c(c2)NC(=O)CO3)cs1 (stereo not given) | inconclusive: 12.6 µM [inhibitor, partial curve, poor fit] | 
32 | O=C(CSCc1c(Cl)cccc1Cl)Nc1ccccc1C(=O)N1CCOCC1 | inactive | 
33 | Cc1ccnc(NS(=O)(=O)c2ccccc2)n1 | inconclusive: 0.398 µM [inhibitor, partial curve] | 
34 | N#Cc1cc(-c2ccc(Cl)cc2)cn(Cc2c(Cl)cccc2Cl)c1=O | inconclusive: 25.1 µM [activator, single point] | 
35 | O=C(c1cc2ccccc2o1)c1cccs1 | inconclusive: 12.6 µM [activator, partial curve] | 
36 | O=C(/C=C/c1ccccc1)Nc1nnc(-c2ccco2)o1 | inactive | 
37 | Cc1cccc(Nc2nc3c(c(=O)n(C)c(=O)n3C)n2CC(O)CO)c1 (stereo not given) | inconclusive: 5.01 µM [inhibitor, single point] | 
38 | COc1cc2cc(C(c3nnnn3C3CCCC3)N3CCc4ccccc43)c(=O)[nH]c2cc1OC (stereo not given) | inconclusive: 15.8 µM [inhibitor, single point] | 
39 | CSCC[C@H](NC(=O)c1ccc(Cl)c(S(=O)(=O)N2CCCC2)c1)c1nc2ccccc2[nH]1 | inconclusive: 25.1 µM [inhibitor, single point] | 
40 | O=C(O)c1ccc2c(c1)NC(=O)C(N1CCCC1)S2 (stereo not given) |  | inconclusive: -50.2% [inhibitor] [at 46.1 µM]
41 | O=C1CSC2=NCN(c3ccccc3)CN12 | inconclusive: 5.01 µM [inhibitor, single point] | 
42 | CCc1ccc2oc(=O)cc(CN(C)Cc3ccccc3)c2c1 | inconclusive: 10 µM [inhibitor, single point] | 
43 | CCCCCCn1c(N2CCN(c3ccccc3)CC2)nc2c1c(=O)[nH]c(=O)n2C | inconclusive: 12.6 µM [inhibitor, single point] | 
44 | CCCC(=O)NC(=S)Nc1sc2c(c1C(N)=O)CCC2 | inactive | 

Row | Compound | Potency | activity change, negative = inhibition
45 | Cc1ccc(Nc2nc(N)nc(CN3CCN(C(=O)c4ccco4)CC3)n2)cc1Cl | inconclusive: 15.8 µM [inhibitor, partial curve, poor fit] | 
46 | CCCN(CC(=O)c1cc(C)n(C)c1C)S(=O)(=O)c1cccc(C(F)(F)F)c1 | inconclusive: 0.126 µM [inhibitor, full curve, poor fit] | 
47 | COc1cc2c(cc1O)CCN(C(=O)c1ccco1)C2C (stereo not given) | inconclusive: 3.98 µM [inhibitor, single point] | 
48 | Cc1cc(NC(=O)c2cc(S(=O)(=O)N3CCCCC3)ccc2C)n(-c2ccccn2)n1 | inconclusive: 12.6 µM [inhibitor, partial curve] | 
49 | Cn1c(=O)[nH]c(=O)c2c1nc(CN1CCN(c3ccc(F)cc3)CC1)n2CCCc1ccccc1 | inconclusive: 12.6 µM [inhibitor, single point] | 
50 | COCCN=C1NN=C(c2ccc(NC(C)=O)cc2)CS1 | inactive | 
51 | COCCn1cc(C(=S)N2CCCCC2)c2ccccc21 | inconclusive: 25.1 µM [inhibitor, single point] | 
52 | CSCCC(NC(=O)c1ccc(C)o1)C(=O)O (stereo not given) | inconclusive: 12.6 µM [inhibitor, partial curve, poor fit] | 
53 | CC(C)c1nnc(NC(=O)CCS(=O)(=O)c2nc(-c3cccs3)cc(C(F)(F)F)n2)s1 | inconclusive: 10 µM [inhibitor, partial curve, poor fit] | 
54 | CN1CCCN(C(=O)c2cc(-c3ccc(Cl)c(Cl)c3Cl)nc3ccccc23)CC1 | inconclusive: 25.1 µM [inhibitor, single point] | 
55 | Cn1c2ccccc2c2c(C(=O)N3CCN(c4ccc(F)cc4)CC3)cn(C3CCCC3)c(=O)c21 | inconclusive: 10 µM [inhibitor, partial curve] | 
56 | CC(C)=CCCC1(C)C=Cc2c(ccc3c2[nH]c2cc(O)c(C)cc23)O1 (stereo not given) | inconclusive: 25.1 µM [activator, single point] | 
57 | CCCc1cc(-c2[nH]ncc2-c2ccc3c(c2)OCCCO3)c(O)cc1O | inconclusive: 12.6 µM [inhibitor, single point] | 
58 | O=C(NCc1ccco1)C(c1ccco1)N(CCc1ccccc1)C(=O)Cn1nnc2ccccc21 (stereo not given) | inconclusive: 12.6 µM [inhibitor, partial curve] | 
59 | CCOc1ccc(C(=O)/C=C/c2ccc(SC)cc2)cc1 | inconclusive: 25.1 µM [inhibitor, single point] | 
60 | O=S(=O)(c1ccc(N2CCC(c3ccc(Cl)cc3)=N2)cc1)N(CCO)CCO | inconclusive: 25.1 µM [inhibitor, single point] | 
61 | c1ccc(-c2nccc(-c3ccc(-n4cnc5ccccc54)cc3)n2)cc1 | inconclusive: 12.6 µM [inhibitor, single point] | 
62 | Cc1ccc(C)c(NS(=O)(=O)c2cc(C(=O)Nc3ccccc3-c3ccccc3)ccc2Cl)c1 | inconclusive: 12.6 µM [inhibitor, partial curve] | 
63 | CC(=O)/C(=N\Nc1ccc(C)cc1)N1CCOCC1 | inconclusive: 12.6 µM [activator, partial curve] | 
64 | O=C(c1ccco1)N1CCN(c2ncnc3c2[nH]c2ccc(Br)cc23)CC1 | inconclusive: 12.6 µM [inhibitor, single point] | 
65 | Cc1cc(NCC2CCCO2)n2c(nc3ccccc32)c1C#N (stereo not given) | inconclusive: 6.31 µM [inhibitor, partial curve, poor fit] | 
